Measured values as given in US20180282412A1 (ASIA BIOTECH PTE, published 2018).

Target: T1, full-length human PD-1 expressed on transfected CHO-K1 cells (CHO/PD-1) (human, UniProt Q15116 25-288)
T1 construct: also called PD-1-transfected CHO cells; cell surface PD-1
Assay: flow cytometry, biotin-PD-L1-Fc on CHO/PD-1 cells, detected with Avidin-FITC

T1 sequence (Q15116 25-288 limits assumed): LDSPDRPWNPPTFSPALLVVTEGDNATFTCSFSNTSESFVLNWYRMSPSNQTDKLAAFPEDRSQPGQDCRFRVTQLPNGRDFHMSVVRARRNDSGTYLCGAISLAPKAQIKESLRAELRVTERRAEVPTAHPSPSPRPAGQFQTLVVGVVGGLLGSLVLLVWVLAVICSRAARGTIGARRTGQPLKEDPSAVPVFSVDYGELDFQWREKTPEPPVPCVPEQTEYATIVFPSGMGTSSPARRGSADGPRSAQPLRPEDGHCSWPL

B1: PD-L1-Fc fusion protein (extracellular region of human PD-L1 fused to human Fc) (Fc fusion)
chain: not shown
notes: also called biotin-PD-L1-Fc; biotin labelled PDL1-Fc
binding result: binds
